Measurements published in patent US5837686A, “Peptides and antibodies for treatment of rheumatoid arthritis” (Peptide Therapeutics Limited, priority 1991, dated 1998).
Part of at least one peptide drawing is inferred or uncertain, most often the ends. Some entries share one result that the patent states for a list of compounds. Ends that are not written are not given here. Peptide text beside a SMILES is read from it.

Legend:
[1] = test system: arthritis induced by IgA-α1 AT complex in the knee; experiment: Anti-rheumatic potential of peptide in passive model of RA (joint width); assay type: in vivo; settings: rabbit, 0.1 ml of 10 mg/ml ia at 2-3 day intervals; days 1 and 11 after start of treatment
IgA-α1 AT complex = experiment: HPLC analysis of dissociation of purified IgA-α1 AT complex in vitro; assay type: biochemical, human; settings: for HPLC %: Table 1, minimum peptide concentration giving complex: free IgA ratio of 20% (base-line 14%), 90 minutes at 37° C.; for HPLC minimum: Table 6; for HPLC minimum / HPLC % minimum / HPLC: minimum concentration giving complex: free IgA ratio of 20%; for HPLC: Table 4; for anti-complex activity (in words): summary statements after Tables 2-6
Experimental: The ability of the peptides of the invention to dissociate purified IgA-α1 AT complex in vitro was tested as described below. The anti-rheumatic drug D-penicillamine and other synthetic peptides were used as controls. […] The sample was monitored at wavelength 206 nm at a flow rate of 1 ml/minute with phosphate buffer (0.1M) pH 7.1. They represent the ability of the peptides to dissociate the IgA-α1 AT complex in vitro. In these experiments, the base-lines level comprises a complex: free IgA ratio of 14%. The minimum concentration of peptide taken to produce a positive dissociation effect is that which results in a complex: free IgA ratio at 20%. In the results tables, all the peptide values are expressed in μMoles.

[2] = test system: alternative complement (C3) pathway; experiment: Inhibition of C3-activation (IgA-α1 AT complex activation of alternative complement pathway, rabbit RBC lysis); assay type: biochemical, human
Experimental: Various peptides were tested for their ability to prevent the IgA-α1 AT complex from activating the alternative complement (C3) pathway. […] This method was based on the method described by Riches and Stanworth, Immunology Letters, 1980, 1, 363,366, with modification to miniaturise it thus allowing the assay to be carried out on microtitre plates. The initial observation by […] and Ishizaka (J Immunol. […] The non-immune complex IgA-α1 AT had been shown in the past to be the only known soluble complex to activate the alternative pathway complement and inhibit the lysis of the rabbit erythrocytes. This inhibition required biologically active complex. […] Positive and negative controls, serum only controls and serum plus IgA-α1 AT complex controls were included in the assay. 25 μl of a suitable dilution of IgA-α1 AT complex (see (iii) above) was added to the test wells and the plates were centrifuged at 2000 rpm for 1 minute. The plates were then incubated at 37° C. for 11/2 hours. 50 μl of a suitable serum dilution (see (a) above) was added and the plates centrifuged at 2000 rpm for 10 minute, then incubated at 37° C. for 30 minutes. 50 μl of 1% rabbit RBC was added and after a further 30 minutes of 37° C. incubation, the plates were centrifuged at 2000 rpm for 10 minutes. Supernatants were taken as previously. The mean values of each of the serum(s), serum and complex (c+s) and total haemolysis wells were calculated. The % haemolysis with respect to lysis by serum wells was calculated. The peptide was considered to have titred out when % lysis value was equal to the calculated % lysis value given by the c+s mean. The titre point for the peptide was calculated as the concentration in μM of the peptide that just gave greater lysis than the c+s mean value.

[3] = test system: mouse macrophage cell line (PU 518); experiment: Macrophage inhibition assay (lysosomal enzyme release stimulated by IgA-α1AT complex); assay type: cell-based; settings: for IC50: concentration needed to prevent 50% release of β-glucoromidase
[4] = Table 1, minimum concentration of peptide needed to prevent C3 activation
[5] = >500 = no dissociation at highest concentration tested
[6] = Table 6, minimum concentration needed to prevent C3 activation
[7] = Table 3, minimum concentration needed to prevent C3 activation
[8] = Table 2, >500 = no dissociation at highest concentration tested
[9] = Table 2, minimum concentration needed to prevent C3 activation
[10] = Table 4, minimum concentration needed to prevent C3 activation

NCCCC[C@H](NC(=O)[C@H](CCCCN)NC(=O)[C@H](CS)NC(=O)[C@@H](N)Cc1c[nH]cn1)C(=O)O [His-Cys-Lys-Lys] (H-HCKK-OH)
swelling of the joints (joint width, t-test versus placebo group) [1]: significant decrease of swelling of the joints

NCCCC[C@H](NC(=O)CNC(=O)[C@H](CS)NC(=O)[C@@H](N)Cc1c[nH]cn1)C(N)=O [Peptide 141, HCGKnh2] (H-HCGK-NH2)
HPLC % (IgA-α1 AT complex): 50 µM
C' [2, 4]: 8 µM
IC50 ([3]; Table 1, PU 518 cells): 100 µM

NCCCC[C@H](NC(=O)CNC(=O)[C@H](CS)NC(=O)[C@H](CS)NC(=O)[C@@H](N)Cc1c[nH]cn1)C(N)=O [Peptide 147, HCCGKnh2] (H-HCCGK-NH2)
HPLC minimum (IgA-α1 AT complex; [5]): 10 µM
C' minimum [2, 6]: 32 µM
IC50 ([3]; Table 6): 250 µM

NCCCC[C@H](NC(=O)CNC(=O)[C@H](CS)NC(=O)[C@@H](N)CCCCN)C(N)=O [Peptide 177, KCGKnh2] (H-KCGK-NH2)
HPLC % (IgA-α1 AT complex): 50 µM
C' [2, 4]: 62 µM
IC50 ([3]; Table 1, PU 518 cells): 250 µM

NCCCC[C@H](NC(=O)[C@@H](N)Cc1c[nH]cn1)C(=O)N[C@@H](CS)C(N)=O [Peptide 178, HKCnh2] (H-His-Lys-Cys-NH2)
HPLC % minimum (IgA-α1 AT complex; Table 3): 10 µM
C' minimum [2, 7]: 16 µM
IC50 ([3]; Table 3): 200 µM

CGGGGHK-NH2 [Peptide 188, CGGGGHKnh2]
HPLC % minimum (IgA-α1 AT complex; [8]): > 500 µM
C' minimum [2, 9]: 62 µM
IC50 ([3]; Table 2): 1000 µM
Effect on enzyme release (footnote to macrophage value) ([3]; Table 2 footnote *): Promotes enzyme release

CHGGGK-NH2 [Peptide 186, CHGGGKnh2]
HPLC % minimum (IgA-α1 AT complex; [8]): > 500 µM
C' minimum [2, 9]: > 250 µM
IC50 ([3]; Table 2): 250 µM

DGGGGHCKK-NH2 [Peptide 129, DGGGGHCKKnh2]
HPLC (IgA-α1 AT complex): 10 µM
C' [2, 10]: 32 µM
IC50 ([3]; Table 4): 125 µM

FNIQHCKK-NH2 [Peptide 136, FNIQHCKKnh2]
HPLC (IgA-α1 AT complex): 5 µM
anti-complex activity (in words) (IgA-α1 AT complex): no effect on activity
C' [2, 10]: 63 µM
IC50 ([3]; Table 4): 90 µM

HCGGGGK-NH2 [Peptide 160, HCGGGGKnh2]
HPLC % (IgA-α1 AT complex): 50 µM
C' [2, 4]: 4 µM
IC50 ([3]; Table 1, PU 518 cells): 90 µM

HCGGGK-NH2 [Peptide 143, HCGGGKnh2]
HPLC % (IgA-α1 AT complex): 125 µM
C' [2, 4]: 32 µM
IC50 ([3]; Table 1, PU 518 cells): 150 µM

HCGGK-NH2 [Peptide 142, HCGGKnh2]
HPLC % (IgA-α1 AT complex): 50 µM
C' [2, 4]: 16 µM
IC50 ([3]; Table 1, PU 518 cells): 500 µM

HGGCGK-NH2 [Peptide 145, HGGCGKnh2]
HPLC % (IgA-α1 AT complex): 50 µM
C' [2, 4]: 32 µM
IC50 ([3]; Table 1, PU 518 cells): 30 µM

HGGCK-NH2 [Peptide 164, HGGCKnh2]
HPLC % (IgA-α1 AT complex): 50 µM
C' [2, 4]: 8 µM

HGGGCGGGK-NH2 [Peptide 163, HGGGCGGGKnh2]
HPLC % (IgA-α1 AT complex): 50 µM
C' [2, 4]: < 2 µM

HGGGCGGK-NH2 [Peptide 171, HGGGCGGKnh2]
HPLC % (IgA-α1 AT complex): 50 µM
C' [2, 4]: 4 µM

HGGGCGK-NH2 [Peptide 146, HGGGCGKnh2]
HPLC % (IgA-α1 AT complex): 50 µM
C' [2, 4]: 32 µM

HGGGCK-NH2 [Peptide 165, HGGGCKnh2]
HPLC % (IgA-α1 AT complex): 50 µM
C' [2, 4]: < 2 µM

HGGGGCGGGGK-NH2 [Peptide 175, HGGGGCGGGGKnh2]
HPLC % (IgA-α1 AT complex): 125 µM
C' [2, 4]: 2 µM

HGGGGCGGK-NH2 [Peptide 173, HGGGGCGGKnh2]
HPLC % (IgA-α1 AT complex): 50 µM
C' [2, 4]: 4 µM

HGGGGCGK-NH2 [Peptide 158, HGGGGCGKnh2]
HPLC % (IgA-α1 AT complex): 50 µM
C' [2, 4]: 16 µM

HGGGGCK-NH2 [Peptide 159, HGGGGCKnh2]
HPLC % (IgA-α1 AT complex): 10 µM
C' [2, 4]: 8 µM

HGGGGKC-NH2 [Peptide 195, HGGGGKCnh2]
HPLC % minimum (IgA-α1 AT complex; Table 3): 50 µM
C' minimum [2, 7]: < 2 µM
IC50 ([3]; Table 3): 200 µM

HGGGKC-NH2 [Peptide 194, HGGGKCnh2]
HPLC % minimum (IgA-α1 AT complex; Table 3): 50 µM
C' minimum [2, 7]: < 2 µM

HGGKC-NH2 [Peptide 180, HGGKCnh2]
HPLC % minimum (IgA-α1 AT complex; Table 3): 50 µM
C' minimum [2, 7]: 4 µM

HGKGC-NH2 [Peptide 181, HGKGCnh2]
HPLC % minimum (IgA-α1 AT complex; Table 3): 50 µM
C' minimum [2, 7]: 32 µM
IC50 ([3]; Table 3): 500 µM

HKGGC-NH2 [Peptide 191, HKGGCnh2]
HPLC % minimum (IgA-α1 AT complex; Table 3): 50 µM
C' minimum [2, 7]: < 2 µM

HKGGGC-NH2 [Peptide 192, HKGGGCnh2]
HPLC % minimum (IgA-α1 AT complex; Table 3): 50 µM
HPLC (IgA-α1 AT complex): 50 µM
C' minimum [2, 7]: < 2 µM
C' [2, 10]: < 2 µM

HKGGGGC-NH2 [Peptide 193, HKGGGGCnh2]
HPLC % minimum (IgA-α1 AT complex; Table 3): 50 µM
C' minimum [2, 7]: < 2 µM
IC50 ([3]; Table 3): 30 µM

HPCKK-NH2 [Peptide 201, HPCKKnh2]
HPLC % (IgA-α1 AT complex): 10 µM
C' [2, 4]: 3.9 µM

HYCKK-NH2 [Peptide 199, HYCKKnh2]
HPLC % (IgA-α1 AT complex): 10 µM
C' [2, 4]: 3.9 µM

IQHCKK-NH2 [Peptide 134, IQHCKKnh2]
HPLC (IgA-α1 AT complex): 10 µM
anti-complex activity (in words) (IgA-α1 AT complex): no effect on activity
C' [2, 10]: 62 µM

KTKGSGFFVF [Peptide 30, KTKGSGFFVF, reference compound]
HPLC minimum (IgA-α1 AT complex; [5]): > 500 µM
C' minimum [2, 6]: 31 µM

MFNIQHCKK-NH2 [Peptide 137, MFNIQHCKKnh2]
HPLC (IgA-α1 AT complex): 5 µM
anti-complex activity (in words) (IgA-α1 AT complex): no effect on activity
C' [2, 10]: 31 µM
IC50 ([3]; Table 4): 125 µM

NIQHCKK-NH2 [Peptide 135, NIQHCKKnh2]
HPLC (IgA-α1 AT complex): 10 µM
anti-complex activity (in words) (IgA-α1 AT complex): no effect on activity
C' [2, 10]: 31 µM

QHCKK-NH2 [Peptide 133, QHCKKnh2]
HPLC (IgA-α1 AT complex): 10 µM
anti-complex activity (in words) (IgA-α1 AT complex): no effect on activity
C' [2, 10]: 31 µM

VDGTCY [Peptide 125, VDGTCY, reference compound]
HPLC minimum (IgA-α1 AT complex; [5]): 250 µM
C' minimum [2, 6]: 31 µM

VSVVMAEVDGTCY [Peptide 80, VSVVMAEVDGTCY, reference compound]
HPLC minimum (IgA-α1 AT complex; [5]): 10 µM
C' minimum [2, 6]: 16 µM
